Test results: the RNAGym collection of RNA variant scans (doi:10.1093/nar/gkz1192)
Read counts are not given, so values of variants with three or more changes are uncertain.

B1: CPEB3 Ribozyme (parent)
chain: UAACAGGGGGCCACAGCAGAAGCGUUCACGUCGCAGCCCCUGUCAGAUUCUGGUGAAUCUGCGAAUUCUGCUGUAUAUCUC

Variants of: B1
Experiment: self-cleavage, relative activity (ratio to wild type); higher = more cleavage; in vitro, sequencing
Procedure, shortened: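 Libraries of CPEB3 self-cleaving ribozyme mutants came from rounds of error-prone PCR and carried barcodes, which DNA sequencing matched to variants. In vitro transcription used T7 RNA polymerase at 37°C for 5 hours, with a further 15 min in DNase I before EDTA stopped the reaction; the ribozymes cleaved during both steps. The RNA was reverse transcribed with template switching and sequenced on Illumina. Relative activity is the cleaved/total read fraction of a variant divided by that of the unmutated ribozyme, averaged over three batches with at least 5 reads.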

Variant | self-cleavage
G6A C12G A15G C29U A35G U72C | 0.05
G6A A15U U43C G73A U76A | 0.52
G6A A13G A28G A57G | 0.09
G6A U25C U60C | 0.35
G6A U25C U60A | 0.26
G6A A21G C23U C27A A45U A57U A64G | 0.04
G6A A15G A21G A28C | 0.05
G6A G8U A35G A45G A47U U51A A56G | 0.06
A5U U60C U76C U80C | 0.68
G6A U25C C38U G46A A47G C50A A64G | 0.04
G6A C39U A45U A64G | 0
A5U U66C U78C | 0.27
G6A A15U U26A | 0.31
G6A A15U U41A U49C U58A | 0.25
G6A G19U U43A | 0.3
G6A A45G C81U | 0.17
G6A A15G A56G A75G | 0.14
G6A A20G U26C U49G A64G A65C U80A | 0.01
G6A U26A U43A A56C A64G | 0.07
G6A A13U A21G U31A | 0.37
G6A C34U A56G A75U A77U | 0.19
G6A A28G U31A A35U A47U U72A | 0.11
G6A A13U A15C A21G A28U A45U U48C | 0.03
G6A C14A U43C C44U U49A | 0.05

Variant | self-cleavage
G6A A21G U60C U72C U74C | 0.23
G6A C27U U48C U74A | 0.3
G6A A20U A57G U67C | 0.13
G6A A45G U49C A65G U69C U72C U80C | 0.04
G6A A20G A35U A77G U78C | 0.03
G6A A21G G63U | 0.28
G6A C34A U49G U51A U60C U66C U76C | 0.03
G6A C12U G42A C50A U69A A77C U80C | 0.04
G6A U25A A47G A64G U66C U72A A75G | 0.05
G6A A18G G42A | 0.28
G6A G7U A13G C17G A35G U41C | 0.5
G6A G33U U49C U54C | 0.1
G6A A13U U25A U26C A57G | 0.05
G6A A21U C37A C38U A56U U69A | 0.02
G6A A15C A18G A64G | 0.48
G6A A18G A45G | 0.05
G6A A28G A47G U58C U72A | 0.13
G6A A35U U43C U66C U72C U78C | 0.13
G6A C11A A15C C38A U67C | 0.37
G6A U25C U80C | 0.09
G6A C38A A56G U69A | 0.07
G6A A64G U78C | 0.32
G6A G7C A18G G30A C40U U72A | 0
G6A C23U A45U U60G | 0.2

Variant | self-cleavage
G6A G24A A77U | 0.05
G6A A21G U41C G46A U60C U72C | 0.07
G6A U31A A35U U43A A64G | 0.13
G6A C23G G52C A57G G70C U78C | 0.08
G6A U26A A56G G61U | 0.07
G6A C23G U26A | 0.05
G6A A18G A21C U31A U51C | 0.29
G6A G9U A18G A20G | 0.06
G6A A35G A57G U66C | 0.25
G6A A45U U48C U49C U69G U76A | 0.04
A5U U60G A64G | 0.44
G6A A15U U26A U43C U60C | 0.05
G6A A15G U48C | 0.08
G6A A13G A35G C38U A45U | 0.23
G6A A18G U43C U51C A56G A57G | 0.3
G6A A18G A45U U54C | 0.3
G6A G7U A15U U26C U72C | 0.35
G6A A13G A28G A35G | 0.47
G6A A15U U69C A75G | 0.21
G6A A15C A77C | 0.33
G6A A18U A21G C68A | 0.17
G6A G16A U41C A45U A56G | 0.06
G6A C38U A56G U67A G73A | 0.04
G6A G24A A35G G42A A45G A56G A64G | 0.05

Variant | self-cleavage
G6A A21G A35C C39U | 0.05
G6A A18G U49A U72G | 0.08
G6A A18G U25C U31A U60A | 0.24
G6A A35G G42C U69A | 0.08
G6A C23U U25C A45U C62A U67C | 0.05
G6A A13G U43C | 0.42
G6A G7U U31A A35G U51A U54C | 0.07
G6A A15G U60C U66C | 0.16
G6A A13C C29U U72G | 0.07
G6A C23U U72C | 0.08
G6A A35U U41G U66C | 0.05
G6A A21G U60C | 0.16
G6A G53A U60C A75G | 0.04
G6A A13G U25C A56U U67C | 0.07
G6A A35G A45U A47G | 0.11
G6A A20G G24A A56G A65U U66C C79A | 0.03
G6A A13U C38U | 0.37
G6A U26A U43A | 0.23
G6A C11A A21U A35G | 0.27
G6A A15G C40U A45G U54A | 0.29
G6A C12U G30A G61A A64U U69C A75U | 0.04
G6A C38A A57G U69C | 0.05
G6A A21G A28G U43C A65G U66C | 0.33
G6A G10C U49C | 0.08

Variant | self-cleavage
G6A C12U G19U U25C U78C | 0.05
G6A A45U U66C U72C | 0.25
G6A G9A U67C | 0.17
G6A A18U U31A U49C U51A U80A | 0.05
G6A A18U A47C U72C | 0.23
G6A A15U A21G G42A U48C A57G | 0.04
G6A A20G G24A U78C | 0.05
G6A G10A C11G G24A C79U | 0.04
G6A G33U U41A | 0.08
G6A A18U U60A U78C | 0.26
G6A U25C U67C | 0.05
G6A A18C A35U A45G U48A U51C | 0.06
G6A C29A U31G U49C | 0.06
G6A A13G A21G A75G | 0.16
G6A A47G G52A A56U U80C | 0.07
G6A C29U A65G U78C | 0.11
G6A C29G U31A A35U A45G U54A U72C | 0.05
G6A A13U A21U C32U A47G | 0.01
G6A A18G U43C | 0.05
G6A A18G U43A | 0.47
G6A G61A U67A C68A | 0.13
G6A A13G U43A U49C | 0.13
G6A A20G A57G A65U | 0.12
G6A C38U A56U U67C | 0.09

Variant | self-cleavage
G6A A18G U25G U66C G70C A75U | 0.04
G6A U25C U48C A64G U66A A77G | 0.04
G6A C12U C62U | 0.06
G6A G9C C27A | 0.25
G6A A13G A20U U25C U31C A56G U69G | 0.11
G6A A21G G52C A56G | 0.27
G6A A15G A45G U66C | 0.17
G6A A15G C40U A65U | 0.39
G6A A28U U66C | 0.3
G6A G10A C23A A35U U72C | 0.08
G6A G24A C32A U43C A47G U60A U66A | 0.05
G6A C12U A47G U66A | 0.08
G6A A15U U25C U54G U72C | 0.2
G6A U26C A35G | 0.38
G6A G8U G19C C32U A45U C62U | 0.04
G6A A15G U25G U49C | 0.44
G6A U25C A35G G55U C62U U66A | 0.04
G6A A15G U78A | 0.45
A5U U67C U80C | 0.42
G6A A13G A35G C38U C68A U69A | 0.07
G6A U26C A65G | 0.08
A5U U69A U72A | 0.38
G6A A45C A56U | 0.17
G6A A15U U72C | 0.23

Variant | self-cleavage
G6A A15G G22U C29U U41A U51G | 0.3
G6A A15G A18G A45G U69C A75U | 0.18
G6A A15G U26C U49C U66C | 0.34
G6A U26A A35U U66C | 0.39
G6A C37A U67C | 0.13
A5U U69C U78C | 0.83
G6A G8U A18G U48C | 0.26
G6A A64G C71U A77G | 0.06
G6A A45G A56G | 0.07
G6A A20G U41G A47U | 0.07
G6A C40U A45C | 0.21
G6A A28C A56U | 0.06
G6A A21G G30A U31A U66G A75G | 0.1
G6A A21G A56U U60A U67C A77G | 0.05
G6A C37U U51A U54C U72C | 0.11
G6A A57G U72C | 0.33
G6A U25C A35U U43C A65G | 0.12
G6A U25A A47G | 0.07
G6A A15U U67G A77G | 0.12
G6A G9A U31C U43C A56G U60C A64G | 0.01
G6A C23A C29A U51G U80A | 0.06
G6A U25G A56G U60A U72C | 0.22
G6A A35U C38G U72C | 0.14
